{"source": "PubChem BioAssay (Tox21)", "note": "The shares of active, inactive and inconclusive entries below differ from those in the screen. Where a call stands in place of a potency, no number is given. Potencies beside an inconclusive call are fits to weak or partial responses and may not hold up. Activity calls are given as the source filed them. Calls come from the whole dose curve; as a rule, active = well fitted activation curve with a large enough effect in the signal ratio in the repeat runs (not every such curve was filed as active); inconclusive = weak or mixed curves; inactive = flat fitted curve, though single readings scatter; the % refers to the signal ratio. Potency is the fitted concentration of half-maximal effect; tags give direction and shape of the fitted curve or compound fluorescence and quenching."}
{"test": "qHTS assay to identify small molecule agonists of H2AX (AID 1224845)", "details": "CHO-K1 phospho-H2AX Ser139 HTRF, 3 h; activation (H2AX phosphorylation): at 154 µM (top of the series) unless noted", "procedure,_shortened": "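Phospho-H2AX Ser139 measured by HTRF (ex 320 nm; em 665 and 620 nm) after 24 hr antibody incubation. Compounds, 15 concentrations, 0.76% DMSO, were applied to CHO-K1 cells for 3hr at 37C before lysis.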"}
{"molecule": "CC(=O)c1ccc2ccc3ccccc3c2c1", "Potency": "inconclusive: 126 µM [activator]"}
{"molecule": "Cc1cc(C(C#N)c2ccc(Cl)cc2)c(Cl)cc1NC(=O)c1cc(I)cc(I)c1O", "note": "(stereo not drawn)", "Potency": "inactive"}
{"molecule": "CC1=CC(=O)CC(C)(C)C1", "Potency": "inconclusive: 82.3 µM [falling, partial curve, poor fit]"}
{"molecule": "CCOc1ccc(OCC)c(Cl)c1", "Potency": "inactive"}
{"molecule": "Cc1cccn2c(=O)c(-c3nnn[nH]3)cnc12", "activation (H2AX phosphorylation)": "inactive: 0.455% [at 31.6 µM]"}
{"molecule": "O=C1CCc2ccccc2O1", "Potency": "inactive"}
{"molecule": "COCCOCCOCCO", "Potency": "inactive"}
{"molecule": "COc1c(C)c2c(c(O)c1C/C=C(\\C)CCC(=O)OCCN1CCOCC1)C(=O)OC2", "Potency": "inconclusive: 22 µM [falling, single point]"}
